# Patent publication US5932217A, “Peptides which inhibit adhesion between leukocytes and endothelial cells” (priority 1994, dated 1999)
# Part of at least one peptide drawing is inferred or uncertain, most often the ends. Where no end group is shown, it is not given here.
# Tested on: THP-1 cells
# Assay: Generation of Factor Xa by monocytes
# Format: cell-based
# Settings: peptides 0.5 mM
# Description: Factor Xa generation was determined by a modification of the method of Miletich et al. (1978), J. Biol. Chem. 253: 6908-6916. THP-1 cells (ATCC; 3×10^7 /ml) resuspended in RPMI 1640 (Bio Whittaker, Walkersville, Md.) were incubated with 100 μM ADP (Sigma), 2.5 mM CaCl2, 1 or 5 μg/ml Factor X (Hematologic Technologies Inc.) and 0.5 mM peptides at room temperature. After 20 minutes, 100 μl of the reaction mixture was transferred to 37° C. and supplemented with 100 μl of bovine factor VII- and Factor X-deficient plasma (Sigma). Coagulation was initiated by adding 100 μl of 25 mM CaCl2 and the clotting time was determined. Factor Xa procoagulant activity (ng/ml) was calculated by means of a standard curve constructed by serial concentrations of Factor Xa (Hematologic Technologies Inc.) from 50 to 250 ng/ml.
substance,measurement,setting,value
"ETKEVDG [FHA II, ETKEVDG]",Clotting time,,30.0 ± 5.0 s
same,Factor Xa,from standard curve,86.0 ng/mL
same,reduction of Factor Xa production,versus scrambled FHA II peptide,did not interfere with the generation of Factor Xa procoagulant activity
